Assay results reported in the supplement of paper PMC11417369.
± gives the standard deviation of the averaged measurements. Some of the results follow.

What follows are sequences tested on PfAP2-LT AP2 domain (GST-tagged) (assay: gcPBM binding intensity (ln(normalized median fluorescence intensity)); higher = stronger DNA binding).
Procedure, shortened: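 An Agilent 4 × 180k array of primer-extended double-stranded 36-bp intergenic genomic probes, with negative controls, was incubated for 1 h with GST-tagged P. falciparum DNA-binding domains expressed in E. coli. Alexa488 anti-GST antibody detected bound protein, scanned at 488 nm. Binding intensity is the highest Masliner-normalised natural-log median intensity across replicate spots of either probe orientation.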

Sequence | gcPBM binding intensity (ln)
TATTATTTTAGAATGCGTACTTATAAAATATTTTAT [XGTACX_site867] | 8.6 ± 0.38
GTGGAATAATATATATGTACATATTTAAAATATTTA [XGTACX_site3499] | 8.64 ± 0.47
AATGGTCTTTTCAACACACGTACATAAAAATATTAT [CACACA_site2571] | 8.79 ± 0.44
TACTGTTATAAATGTGGTACTAATATTATACATATA [XGTACX_site5116] | 8.66 ± 0.45
GTGTGATGGTCCAATATACACACTTAAAAAAAAAAA [CACACA_site2426] | 8.76 ± 0.46
TTAAATTATTAGAGAGTGCATTATATATATTATACA [GTGCAC_site9711] | 8.45 ± 0.43
TCTTTAATGATGTGTACACAAGAAAACATTGTTAAG [CACACA_site5299] | 8.8 ± 0.42
AAAAATAAGAGCGTAGCACACACGCATTTTATAAAT [CACACA_site8147] | 9.07 ± 0.36
TAGAAGCATCATTTTACACACATGCAAATGTAAAAT [CACACA_site1893] | 9.04 ± 0.32
TACATACTAAAAAAATGTACTTGTATTGTTTTTTTA [XGTACX_site8357] | 8.58 ± 0.34
GAAATATTTGTAAAAACATGCATGGTACTTTTAAAA [TGCATGCA_site6] | 8.8 ± 0.38
ACATAAGAATTTTTATGTACTCATAATATTTTATAT [XGTACX_site2398] | 8.57 ± 0.35
TTATTTAACGTATTCTCACACATATATATATATAAT [CACACA_site5226] | 8.95 ± 0.42
TTTCTATATGGATTTGCACACATAAAAATGCTTATA [CACACA_site8751] | 8.99 ± 0.37
TATATATATATATACACATGCAAAAATTTTTAATTT [TGCATGCA_site82] | 9.24 ± 0.57
ATATATATATATATATGTACATATGTTAGGATCAAA [XGTACX_site8626] | 9.56 ± 0.042
ATGACATATAAATATACACACATACGTAAGTATATT [CACACA_site5058] | 9.06 ± 0.34
TTATTGAACTTTTATAAAACCTGTATTATTATCTCT [CACACA_negctrl_site767] | 8.63 ± 0.59
TTATATTAATAATAAAGTACAAAAAATCATATATAA [XGTACX_site799] | 8.6 ± 0.52

Sequence | gcPBM binding intensity (ln)
TCCAGGCTACACTCTAGTACTCGTAGGGTTATGAGA [XGTACX_site4945] | 8.69 ± 0.5
TATTTCTTATTACATACACACATATACATATATGAC [CACACA_site3201] | 9.05 ± 0.31
AAAAAATTCAAAATCACACATAAAAAAGGACACATA [CACACA_site5972] | 8.96 ± 0.46
TAATTTTGTAAAAATTGTACATATTTATCTTTTTAT [XGTACX_site4305] | 8.63 ± 0.54
TCATATTATAAAAAATGTACAAGGAAAAAATATATA [XGTACX_site337] | 8.72 ± 0.4
ACATTATATAAAATATGTACACATAAATAAATAAAT [XGTACX_site5031] | 9.12 ± 0.4
AAAAAAAAAAAAAACACACACATATAATATATTTAA [CACACA_site1337] | 9.17 ± 0.44
CCTACAATTCGTAATACACACACATATATATATATA [CACACA_site9251] | 9.69 ± 0.085
TTTTTTTTTTACTTCACACATATACATTTATATTTA [CACACA_site4385] | 8.78 ± 0.45
TAAACATACAGATACACACACACACCCACAGAGACA [CACACA_site4429] | 10.15 ± 0.028
AGAATCACCAAATATGTACACACCTTAACATGTTTA [CACACA_site2068] | 9.15 ± 0.42
ATATATATGGTCATTTGTACATATCGTGAGAGCTGC [XGTACX_site4117] | 8.95 ± 0.3
ATATAACATAATGGATGTACATGTATAAATATAAAA [XGTACX_site8228] | 9.15 ± 0.5
TATATTATAAATTAATGTACGTAATTTTTTTTTTTT [XGTACX_site2500] | 8.38 ± 0.48
ATAATAATATTATTTTGTACATATGTGCTTATTTAT [XGTACX_site5540] | 9.01 ± 0.45
GTATAATTTAAAAAGTGTACATAAAGTTTTTATTAA [XGTACX_site1090] | 8.46 ± 0.49
TTTTGTCAACATTTTTATATTAGGTCTTGAACGATT [GTGCAC_negctrl_site72] | 8.57 ± 0.47
AGTAATAAGTAATTTACACACATATTATAGCATCAC [CACACA_site6971] | 9.2 ± 0.37
CTTGGGCGTCATAATGAACACACAATTATATTATGA [CACACA_site9297] | 8.74 ± 0.41

Sequence | gcPBM binding intensity (ln)
TTATTACCATATTTTGTACACACATCTTTATCTCAA [CACACA_site9054] | 9.3 ± 0.49
TATATATAAGCGCATGCACACGCAAAGGTATATAAA [CACACA_site8107] | 9.3 ± 0.48
ATTATATAATCTATATGTACATATATATATATATAT [XGTACX_site4970] | 9.44 ± 0.23
ATATATACAAATCCTTTTTTCCAAGATGGAAAAAGA [CACACA_negctrl_site382] | 8.38 ± 0.38
AAAATAATAAATAACGCATGCGTGTGCATTTTATTC [TGCATGCA_site898] | 9.29 ± 0.41
AGAACGACTAAGCAGTGTACATTTTGTATATACAAT [XGTACX_site2831] | 9.13 ± 0.39
TTACATACATACAAGTGTACGCATATATTAATATTA [XGTACX_site4006] | 8.79 ± 0.35
ATATGTACAAGTTATACACACATGTACAGTTATATA [CACACA_site6706] | 9.2 ± 0.36
TTTAACATTTCAGATGTGCACATTTTCCGAACCAGT | 8.91 ± 0.38
ATAATGAAGACTTTTTTACACACTTCATATATTATA [CACACA_site8630] | 9.01 ± 0.4
TGATATTTTTCCATAGTGCAAAATATAGTAATGTAT | 8.62 ± 0.49
TAAATGTGTATATATTGTACAAATATTAATACATAC [XGTACX_site8102] | 8.86 ± 0.3
AAATTGTTAAAAAGAAGTACATTCTTTTATTTCTTA [XGTACX_site540] | 8.28 ± 0.42
AAAGAACTTAATGCTGCACACAAAAAAAAGGAAAAA [CACACA_site8375] | 9.12 ± 0.45
AGAAAAAAACGGTACAGTACACATAAACTAATTATT [XGTACX_site8617] | 9.09 ± 0.37
TATTATATATGGAAGTAATAATATATATATATATAT [GTGCAC_negctrl_site63] | 8.87 ± 0.17
TTTTTTGAAAATAAAAGTACAAATTTTATATTTAAA [XGTACX_site2758] | 8.15 ± 0.42
ACAAACTAAAAAAGAAGTACAAATCGTATTAATAAT [XGTACX_site8684] | 9.08 ± 0.4
CCAACATAGAGGGGCACACACATATATACATAAAAA [CACACA_site1847] | 9.31 ± 0.67
